Reference: ChEMBL document CHEMBL4888484, “Replenishing the malaria drug discovery pipeline: Screening and hit evaluation of the MMV Hit Generation Library 1 (HGL1) against asexual blood stage Plasmodium falciparum ,using a nano luciferase reporter read-out” (2022)
Hit rate of the full screen: of about 150,000 compounds, about 540 (0.36%) showed an effect of 50% or more. The list shows a part of the results.

System: Plasmodium falciparum
Assay: Primary screen in NF54 nanoGlo assay, in single point, at 2uM, 72h; a lower Z score goes with more inhibition
Format: functional, Erythrocyte
Settings: timepoint 72 hour

SMILES	% Inhibition [%]	Z score
O=C(NC[C@@H](c1ccco1)n1cccn1)Nc1ccccc1	11	-1.45
CN(CCc1ccc(Cl)cc1)C(=O)c1cncnc1C1CC1	6	-0.84
C#CCN(C)CCCNC(=O)c1cn2c(n1)CCCC2	-4	0.63
c1cc(-c2noc(COc3nsnc3N3CCOCC3)n2)ccn1	-6	0.85
Cc1nc(C(C)(C)C)sc1[C@H](C)NCC1(O)CCCCC1	-2	0.46
O=C(NCCCOCC1CC1)Nc1cccc(-c2nnco2)c1	-20	2.04
O=C(c1cc2c(s1)CCCCC2)N1CC(CO)C1	27	-3.05
Cc1ccc(CN2CCCn3nc(CNC(=O)C4CCC4)cc3C2)s1	-9	1.78
Cc1[nH]ccc1C(=O)NC(c1ccc(Cl)cc1)C1CN(C)CCO1 (centres undefined)	-1	0.17
C[C@H](Oc1ccc(C(=O)NCc2ccccc2CN2CCN(C)CC2)cn1)c1ccccc1	-10	1.4
Nc1ccc(Br)c(C2CC2)n1	-16	2.14
Cc1ncccc1NC(=O)OC(C)(C)C	-4	0.55
CNS(=O)(=O)c1ccc(Cl)c(S(=O)(=O)NC)c1	-11	1.47
COc1ccc(OC)c([C@@H](O)CNC(=O)Cc2c(C)nn(C)c2C)c1	-18	3.31
CCCCC(=O)Nc1ccc2c(c1)nc(CN1CCCCCC1)n2C	-2	0.26
O=C(Cc1cccc(C(F)(F)F)c1)N1C[C@@H]2C[C@H]1C(=O)N2c1ccccc1Cl	-7	1.4
CC(C)n1ncc2c1C[C@@H](Nc1nc(C3CC3)ns1)CC2	-8	1.41
C=C(C)CNC(=O)Nc1ccc(N(C)C)cn1	-2	0.23
COC(=O)[C@H]1CN(c2nnnn2Cc2cccc3[nH]ccc23)C[C@@H]1C	-7	1.13
N#Cc1cnc(NCCCNc2cnc(C#N)cn2)cn1	-6	0.66
Cc1nc(C)c(C(=O)NCC2(Cc3ccccc3)CCC2)o1	5	-0.65

SMILES	% Inhibition [%]	Z score
C[C@H]1CCC[C@@H](C(=O)OC(C)(C)C)N1C(=O)CCS(C)(=O)=O	-17	1.98
CCN(CC)c1ncc2c(n1)CC[C@H](C(=O)NCc1ccccc1)C2	-4	0.78
O=C(c1cc(C2CC2)nc2ccccc12)N1CCN2C(=O)OC[C@H]2C1	-10	1.98
N#Cc1cccc(NCCN2CCC[C@H](CO)C2)n1	-11	2
CC1OCCN(C(=O)C2=CCCC2)C1C (centres undefined)	4	-0.54
C[C@H](NC(=O)C(=O)Nc1cccn(C)c1=O)C(C)(C)c1ccccc1	-13	1.31
O=C(Cc1ccccc1)N[C@@H]1c2ccccc2C2(CCNCC2)[C@H]1O	-4	0.62
Cc1noc(-c2c(NC(=O)COc3ccccc3F)sc3c2CCOC3)n1	-6	0.95
COc1ccccc1-n1nc(CN(C)C(=O)CC2CCCC2)c2c1CCN(Cc1ccccc1F)C2	-9	0.85
Nc1ncc(S(=O)(=O)NCc2ccc(Br)cc2)cn1	-9	1.18
CN1C[C@@H](NCc2ccc(Cl)c(Cl)c2)CCC1=O	-15	2.81
COc1ccc([C@H]2CN(C(=O)c3ccc4ncccc4c3)C[C@@H]2N)cc1	1	-0.21
Clc1ccc(-c2cc(-c3nc4ccccc4[nH]3)c(-c3ccccc3)nn2)cc1	-8	1.67
Cc1ccc(C)c(S(=O)(=O)NCCCc2cnoc2)c1	-4	0.62
CCn1nc(C)c(CN2C[C@@H]3CC[C@H]2CN(Cc2ccc(F)cc2)C3)c1C	0	-0.04
O=C1C[C@H](C(=O)N(Cc2ccco2)C2CC2)CN1Cc1cccc(C(F)(F)F)c1	7	-0.95
Cc1nc(-c2cccc(C#N)c2)nn1C[C@H](O)c1cccc(Cl)c1	-15	1.24
C[C@@H](c1ccccc1)N(C)CCCCS(=O)(=O)O	-2	0.4
O=C(NCc1cncn1C1CC1)N1CCC[C@H]1c1nc2ccccc2s1	-17	2.96
CC(C)c1oncc1NC(=O)c1cccc(=O)[nH]1	-13	1.75
CCOC(=O)c1nc(NCCc2ccc(Cl)cc2)c2c(-c3ccc(Cl)cc3)noc2n1	7	-1.24
